What was measured:
[1] = system: CC1(C)S[C@@H]2[C@H](NC(=O)[C@H](N)c3ccc(O)cc3)C(=O)N2[C@H]1C(=O)O; assay: (§1) The compound was tested against Bacteroides fragilis FP784 and its stability towards beta-lactamase was evaluated
[2] = system: Cc1nnc(SC2=C(C(=O)O)N3C(=O)[C@@H](NC(=O)Cc4ccccc4)[C@H]3SC2)s1; assay: as §1
[3] = system: CC1(C)S[C@@H]2[C@H](NC(=O)[C@H](N)c3ccc(O)cc3)C(=O)N2[C@H]1C(=O)O; assay: (§2) The compound was tested against Bacteroides fragilis FP784 and its stability towards beta-lactamase relative to cephaloridine was evaluated
[4] = system: Cc1nnc(SC2=C(C(=O)O)N3C(=O)[C@@H](NC(=O)Cc4ccccc4)[C@H]3SC2)s1; assay: as §2

Q: With “Beta-lactamase (Escherichia coli K-12) (sequence not shown)” as the substance, how does the Km [1] read?
A: 27.3 µg/mL

Q: And the Km [2]?
A: 14.5 µg/mL

Q: What about the Vmax [3] of the same substance?
A: 0.0175

Q: What about the Vmax [4] of the same substance?
A: 0.351
